Source: the BET-seq Pho4 binding data (Le et al. 2018)
The other results are listed elsewhere or left out. The energies were worked out here from pooled read counts, against the library average; single values are noisy.

Target: T1, Pho4 (S. cerevisiae) (UniProt P07270)
T1 sequence: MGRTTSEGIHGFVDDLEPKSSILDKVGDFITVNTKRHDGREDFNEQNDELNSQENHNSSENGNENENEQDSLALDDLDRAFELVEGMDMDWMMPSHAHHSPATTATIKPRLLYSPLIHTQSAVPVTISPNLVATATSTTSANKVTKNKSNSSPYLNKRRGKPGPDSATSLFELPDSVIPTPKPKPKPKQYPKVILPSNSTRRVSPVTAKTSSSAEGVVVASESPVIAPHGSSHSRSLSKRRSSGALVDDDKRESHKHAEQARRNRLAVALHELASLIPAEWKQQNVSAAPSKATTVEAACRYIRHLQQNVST
Assay: relative binding free energy (BET-seq); higher = weaker binding
Settings: reference: library average

Row | Sequence | relative binding free energy
1 | TTGCTCACGTGCTGTG | 0.14 kcal/mol
2 | GTGGACACGTGATATG | 0.11 kcal/mol
3 | GGTTTCACGTGTGTTC | 0.4 kcal/mol
4 | AACGTCACGTGGGTAG | -0.11 kcal/mol
5 | GTTTTCACGTGCAATA | 0.43 kcal/mol
6 | TGTTTCACGTGTCACT | 0.25 kcal/mol
7 | TGGCACACGTGTTTGG | 0 kcal/mol
8 | ATATACACGTGTTGTC | 0.16 kcal/mol
9 | GTAGCCACGTGTGGGG | -0.07 kcal/mol
10 | TTGTGCACGTGCTGAA | -0.08 kcal/mol
11 | TGGAACACGTGGCGCG | 0.03 kcal/mol
12 | CCTGTCACGTGTGTGT | 0.04 kcal/mol
13 | ATTGACACGTGTTCTG | 0.02 kcal/mol
14 | AAGGTCACGTGGGATC | 0.01 kcal/mol
15 | GGATTCACGTGGTAAG | 0.33 kcal/mol
16 | TATTGCACGTGTCGGC | 0.08 kcal/mol
17 | TAGGACACGTGATAGG | 0.11 kcal/mol
18 | TGGAACACGTGTTAGG | 0.12 kcal/mol
19 | TTGTGCACGTGAGGCT | 0.24 kcal/mol
20 | TTTTACACGTGCGATA | 0.15 kcal/mol
21 | TAGGCCACGTGGTGGA | -0.14 kcal/mol
22 | GCAGTCACGTGTTGGT | 0.23 kcal/mol
23 | TTTTCCACGTGCGGTT | 0.13 kcal/mol
24 | GCGTACACGTGTAGTG | 0.07 kcal/mol
25 | ACTGGCACGTGAGCGG | 0.06 kcal/mol

Row | Sequence | relative binding free energy
26 | AGTCTCACGTGTAGCG | 0.31 kcal/mol
27 | TATTTCACGTGTAAAG | 0.24 kcal/mol
28 | TTGGGCACGTGCTTAA | -0.19 kcal/mol
29 | TGAGTCACGTGTGGAG | 0.17 kcal/mol
30 | ATATGCACGTGGGTTA | -0.18 kcal/mol
31 | GTTATCACGTGGGGTA | 0.03 kcal/mol
32 | ATAGGCACGTGAGTTT | 0.22 kcal/mol
33 | TTCAACACGTGGAGGG | -0.04 kcal/mol
34 | ATGGGCACGTGGAGCG | -0.11 kcal/mol
35 | TTCTGCACGTGGAGGA | 0.04 kcal/mol
36 | GGGTGCACGTGTTTCT | 0.13 kcal/mol
37 | ATATGCACGTGAAATA | 0.32 kcal/mol
38 | TTGTTCACGTGGAAAG | 0.32 kcal/mol
39 | CGTGGCACGTGTTGGT | -0.11 kcal/mol
40 | TTATGCACGTGGCAGG | -0.04 kcal/mol
41 | GTATGCACGTGGAGGA | -0.05 kcal/mol
42 | TTTAACACGTGCTTTG | -0.1 kcal/mol
43 | CGTTACACGTGCGGGG | -0.1 kcal/mol
44 | TTAAGCACGTGGGAGC | -0.14 kcal/mol
45 | TTTCACACGTGTGGAT | 0.18 kcal/mol
46 | ACTTTCACGTGTTCGT | 0.28 kcal/mol
47 | GAGATCACGTGTAAGT | 0.27 kcal/mol
48 | GACGGCACGTGGTGTG | -0.09 kcal/mol
49 | TAGAGCACGTGGATGC | 0.01 kcal/mol
50 | TGGGGCACGTGGACGT | -0.21 kcal/mol

Row | Sequence | relative binding free energy
51 | AATGTCACGTGGGCGG | -0.01 kcal/mol
52 | TGGATCACGTGGCGTC | 0.14 kcal/mol
53 | CGGTTCACGTGATGCT | 0.3 kcal/mol
54 | AGATTCACGTGCTTGG | 0.27 kcal/mol
55 | GGTGACACGTGTGGAC | 0.11 kcal/mol
56 | ATAGTCACGTGAATTT | 0.41 kcal/mol
57 | ATTTGCACGTGACTTG | 0.11 kcal/mol
58 | TGACGCACGTGGGTAG | -0.22 kcal/mol
59 | CAGGCCACGTGGTGGG | -0.05 kcal/mol
60 | AGAGACACGTGAGTAG | 0.29 kcal/mol
61 | TTCTGCACGTGCGGGT | 0 kcal/mol
62 | CATTTCACGTGGGGGT | 0.08 kcal/mol
63 | GGAGGCACGTGACGTG | 0.08 kcal/mol
64 | GGAAGCACGTGTTGGA | -0.12 kcal/mol
65 | CGTTGCACGTGCAAGG | 0.06 kcal/mol
66 | AGTGGCACGTGTATGA | 0.04 kcal/mol
67 | CTTTTCACGTGGTGTC | 0.02 kcal/mol
68 | GTGTACACGTGTATCT | 0.12 kcal/mol
69 | TTGTTCACGTGAGGAT | 0.45 kcal/mol
70 | TTTACCACGTGGTTAA | -0.03 kcal/mol
71 | TGTGTCACGTGTTGTC | 0.09 kcal/mol
72 | GATGACACGTGGGATT | -0.05 kcal/mol
73 | GGATACACGTGGAGTA | 0.07 kcal/mol
74 | CTAATCACGTGAGTGG | 0.32 kcal/mol
75 | TGCTTCACGTGCTTGT | 0.22 kcal/mol

Row | Sequence | relative binding free energy
76 | TGTGGCACGTGTTTGG | 0 kcal/mol
77 | ATGGACACGTGAAGTG | 0.18 kcal/mol
78 | GTTTGCACGTGCGTAG | -0.01 kcal/mol
79 | ATTGTCACGTGATGAG | 0.17 kcal/mol
80 | TGTGGCACGTGAGATT | 0.16 kcal/mol
81 | TAGTTCACGTGTGTCA | 0.12 kcal/mol
82 | TTGGGCACGTGAGCGA | 0.2 kcal/mol
83 | GCTTGCACGTGTGGTG | 0.09 kcal/mol
84 | ATATACACGTGTATTG | -0.1 kcal/mol
85 | GAGAACACGTGGGTTG | 0.01 kcal/mol
86 | TTGTGCACGTGGTATC | -0.17 kcal/mol
87 | AGTGCCACGTGAGGTT | 0.12 kcal/mol
88 | TATGCCACGTGATGGT | -0.05 kcal/mol
89 | GAGGTCACGTGGGCAG | 0.01 kcal/mol
90 | AGAGACACGTGAGGGC | 0.17 kcal/mol
91 | TGGTACACGTGGGCTT | -0.12 kcal/mol
92 | CAGTACACGTGAGTGT | 0.14 kcal/mol
93 | AATGTCACGTGAGTGG | 0.23 kcal/mol
94 | AGTCGCACGTGTCGGG | -0.01 kcal/mol
95 | TGTATCACGTGCGGCT | 0.09 kcal/mol
96 | ACGGTCACGTGGAGCG | 0.15 kcal/mol
97 | CAGGTCACGTGATAGG | 0.26 kcal/mol
98 | TTAGCCACGTGTTTTT | -0.05 kcal/mol
99 | TAGGGCACGTGGAGCA | -0.21 kcal/mol
100 | AATTACACGTGTTAGA | 0.15 kcal/mol

Row | Sequence | relative binding free energy
101 | TCGGGCACGTGATATA | 0.07 kcal/mol
102 | TGAGTCACGTGAGGTA | 0.36 kcal/mol
103 | CAGGTCACGTGTTATG | 0 kcal/mol
104 | GGTAACACGTGGATTA | 0.2 kcal/mol
105 | AATGGCACGTGAATTA | 0.15 kcal/mol
106 | AGTTGCACGTGAAGCT | 0.23 kcal/mol
107 | AGGAGCACGTGGGGTC | -0.29 kcal/mol
108 | ATACTCACGTGGGGAG | 0.08 kcal/mol
109 | TAATGCACGTGAAATG | 0.21 kcal/mol
110 | GGGAGCACGTGGTTGT | -0.04 kcal/mol
111 | GTATGCACGTGAGATT | 0.18 kcal/mol
112 | ACGTGCACGTGTGAGT | -0.12 kcal/mol
113 | AGGCTCACGTGCTGGT | 0.15 kcal/mol
114 | TGTCTCACGTGTCGTT | 0.11 kcal/mol
115 | AGAAGCACGTGGTAAG | -0.07 kcal/mol
116 | AGGAGCACGTGCGTGT | -0.18 kcal/mol
117 | CGGGTCACGTGGGGTG | -0.06 kcal/mol
118 | ACTGGCACGTGCTGTG | -0.16 kcal/mol
119 | TGGGACACGTGCGTTT | 0.11 kcal/mol
120 | TGTTGCACGTGGGCGT | -0.11 kcal/mol
121 | TTAAACACGTGTTTTG | -0.05 kcal/mol
122 | AGGTCCACGTGATTGG | 0.16 kcal/mol
123 | TGTTTCACGTGGTCCG | 0.17 kcal/mol
124 | GGTGTCACGTGTCATA | 0.2 kcal/mol
125 | ATGCTCACGTGGCTGG | 0.18 kcal/mol

Row | Sequence | relative binding free energy
126 | GCGGTCACGTGGAGGG | 0.07 kcal/mol
127 | TGGGTCACGTGGAAAG | 0.25 kcal/mol
128 | TTTAGCACGTGTGTAT | -0.02 kcal/mol
129 | CTTTTCACGTGGAATA | 0.38 kcal/mol
130 | GCTTGCACGTGTAGGA | -0.04 kcal/mol
131 | ATTCTCACGTGGAGTT | 0.19 kcal/mol
132 | AGAGTCACGTGTGGGT | 0.23 kcal/mol
133 | CGGTTCACGTGGATAA | 0.25 kcal/mol
134 | AAGTGCACGTGTATGA | 0.04 kcal/mol
135 | TGCTACACGTGGAGTT | 0.03 kcal/mol
136 | GGCTTCACGTGTGGTG | 0.31 kcal/mol
137 | AGAGCCACGTGTGTGT | -0.17 kcal/mol
138 | GTGGTCACGTGCAGCG | 0.04 kcal/mol
139 | CGTAACACGTGTGTTT | -0.08 kcal/mol
140 | CGTCTCACGTGTTGGA | 0.2 kcal/mol
141 | CATGACACGTGTATGT | -0.07 kcal/mol
142 | CGTGTCACGTGCAGGT | 0.1 kcal/mol
143 | GGTGGCACGTGTGCAA | -0.09 kcal/mol
144 | AGGATCACGTGTAGTG | 0.12 kcal/mol
145 | CTGGTCACGTGTAGGA | 0.1 kcal/mol
146 | TCCAGCACGTGTTGGG | -0.02 kcal/mol
